The results in this text go back to the supplement of paper PMC2702839.

Where a name gives a salt, the structure may show the parent alone. The list shows a part of the results.

The test concerns Schistosoma mansoni schistosomula. Nature of the test: phenotypic hit in primary schistosomula screen (any phenotype vs DMSO control) (binary (1 = hit, 0 = no phenotype)); higher = active (phenotype induced). The conditions noted are these: 1 µM; time (d): 7.
In the case of `O=C(O)CCC(=O)Nc1ccc(S(=O)(=O)Nc2nccs2)cc1` [succinylsulfathiazole], the phenotypic hit was inactive: 0.

On to `CC(C)Cc1ccc(C(C)C(=O)O)cc1` (racemic) [(±)-Ibuprofen], for which the phenotypic hit is inactive: 0.

For the molecule `COc1cnc(NS(=O)(=O)c2ccc(N)cc2)nc1` [sulfameter], the phenotypic hit was inactive: 0.

Consider `CC(=O)c1cc2c(cc1O)OC(C)(C)C=C2` [eupatoriochromene], for which the phenotypic hit is inactive: 0.

On to `CCOC(=O)C1=C[C@]2(CC)CCCN3CCc4c(n1c1ccccc41)[C@@H]32` [vinpocetine], for which the phenotypic hit was inactive: 0.

Turning to `CC(=O)OCC(=O)[C@@]1(O)CC[C@H]2[C@@H]3C[C@H](C)C4=CC(=O)C=C[C@]4(C)[C@H]3[C@@H](O)C[C@@]21C` [6alpha-methylprednisolone acetate], the phenotypic hit was inactive: 0.

With `CC(=O)OC1CCC2(C)C3=C(CC[C@H]2C1(C)C)[C@@]1(C)CC[C@@H]([C@@H](C)CCC=C(C)C)[C@]1(C)CC3` (some centres not stated) [euphol acetate], the phenotypic hit was inactive: 0.

For the molecule `COc1ccc2c(c1)OCC(Cc1ccc(OC)c(OC(C)=O)c1)C2=O` (configuration not stated) [deoxysappanone b 7,3'-dimethyl ether acetate], the phenotypic hit was inactive: 0.

In the case of `CC(=O)O[C@H]1C[C@@H](OC(C)=O)C(C)(C)C2C[C@@H](O)[C@]3(C)C(CC[C@@]4(C)[C@H](c5ccoc5)OC(=O)[C@H]5O[C@]543)[C@]21C` (some centres not stated) [7-deacetylkhivorin], the phenotypic hit was inactive: 0.

On to `CC(CCC(=O)O)[C@H]1CCC2C3CC[C@@H]4CC(=O)CC[C@]4(C)C3C=C[C@@]21C` (some centres not stated) [chol-11-enic acid], for which the phenotypic hit is inactive: 0.

On to `OCCOCCN1CCN(C(c2ccccc2)c2ccc(Cl)cc2)CC1` (configuration not stated) [hydroxyzine pamoate], for which the phenotypic hit was inactive: 0.

`CO[C@H]1[C@H](O)[C@@H](O)[C@H](O)[C@H](O)[C@H]1O` [quebrachitol]: the phenotypic hit was inactive: 0.

Take `Cc1ccccc1N1C(=O)c2cc(S(N)(=O)=O)c(Cl)cc2NC1C` (configuration not stated) [metolazone]: the phenotypic hit was inactive: 0.

With `CC(C)CCC[C@@H](C)[C@H]1CC[C@H]2[C@@H]3C(=O)C=C4C[C@@H](O)CC[C@]4(C)[C@H]3CC[C@]12C` [7-oxocholesterol], the phenotypic hit is inactive: 0.

For the molecule `COc1ccc(C(=O)c2ccc(O)cc2)c(O)c1O` [2,3,4'-trihydroxy-4-methoxybenzophenone], the phenotypic hit is inactive: 0.

As for `COc1ccc(-c2coc3c(OC)c(OC)cc(O)c3c2=O)cc1` [isotectorigenin, 7-methyl ether], the phenotypic hit was inactive: 0.

Turning to `COC(=O)C(C)c1ccc(C(=O)c2cccs2)cc1` (configuration not stated) [suprofen methyl ester], the phenotypic hit was inactive: 0.

In the case of `NCCCC(N)C(=O)O` (configuration not stated) [ornithine aketoglutarate], the phenotypic hit was inactive: 0.

Turning to `CCCCC(CC)CN=C(N)N=C(N)NCCCCCCNC(N)=NC(N)=NCC(CC)CCCC` (configuration not stated) [alexidine hydrochloride], the phenotypic hit is active: 1.

For the molecule `CC(=O)Nc1ccc(O)cc1` [acetaminophen], the phenotypic hit is inactive: 0.

As to `CC(=O)Oc1c(C)c(C)c2c(c1C)CCC(C)(CCCC(C)CCCC(C)CCCC(C)C)O2` (stereo not drawn) [alpha-tochopheryl acetate], the phenotypic hit was inactive: 0.

For the molecule `O=C(O)c1cc(O)c(=O)c2c(O)c(O)ccc2c1` [7-deshydroxypyrogallin-4-carboxylic acid], the phenotypic hit was inactive: 0.

As for `COC(=O)[C@@H]1OC(=O)C2OC23[C@@]1(C)CCC1[C@]2(C)C(C[C@H](O)[C@]13C)C(C)(C)[C@H](OC(C)=O)C[C@@H]2OC(C)=O` (stereo partly drawn) [7beta-hydroxy-7-desacetoxykhivorinic acid, methyl ester], the phenotypic hit was inactive: 0.

As to `C[C@H](C[C@@H](O)[C@@H]1OC1(C)C)[C@@H]1CC[C@]2(C)C3=CC[C@H]4C(C)(C)C(=O)CC[C@]4(C)[C@H]3CC[C@@]12C` [niloticin], the phenotypic hit is inactive: 0.

Turning to `CC(=O)N[C@@H](Cc1ccccc1)C(=O)O` [acetylphenylalanine], the phenotypic hit is inactive: 0.

`CCOC(=O)[C@H](CCc1ccccc1)N[C@@H](C)C(=O)N1CCC[C@H]1C(=O)O` [enalapril maleate]: the phenotypic hit is inactive: 0.

As for `Cn1nnnc1SCC1=C(C(=O)O)N2C(=O)[C@@H](NC(=O)[C@H](OC=O)c3ccccc3)[C@H]2SC1` [cefamandole nafate], the phenotypic hit is inactive: 0.

As to `COc1cc(O)c(C)c(O)c1` [2,6-dihydroxy-4-methoxytoluene], the phenotypic hit was inactive: 0.

For the molecule `OCC(O)C(O)C(O)C(O)C(O)CO` (configuration not stated) [perseitol], the phenotypic hit was active: 1.

Regarding `C[C@H](CCC(=O)O)[C@H]1CC[C@H]2[C@@H]3CC[C@@H]4CCCC[C@]4(C)[C@H]3CC[C@]12C` [ursocholanic acid], the phenotypic hit was inactive: 0.

With `N=C(N)NC(=O)c1nc(Cl)c(N2CCCCCC2)nc1N` [n,n-hexamethyleneamiloride], the phenotypic hit is inactive: 0.

Consider `CC1=C(CC(=O)O)c2cc(F)ccc2/C1=C\c1ccc([S+](C)[O-])cc1` (configuration not stated) [Sulindac], for which the phenotypic hit is inactive: 0.

On to `CCOc1ccc(C(=O)c2ccc(O)c(O)c2O)cc1` [2,3,4-trihydroxy-4'-ethoxybenzophenone], for which the phenotypic hit is inactive: 0.

For the molecule `CN(C)CCCO[C@@H]1[C@H]2OC(C)(C)O[C@H]2O[C@@H]1[C@H](O)CO` [amiprilose], the phenotypic hit is inactive: 0.

Consider `C[C@]12CC[C@@H]3c4ccc(O)cc4CC[C@H]3[C@@H]1C[C@@H](O)[C@@H]2O` [estriol], for which the phenotypic hit is inactive: 0.

For `CO[C@H]1C=C[C@@]23c4cc5c(cc4CN(C[C@@H]2O)[C@H]3C1)OCO5` [crinamine], the phenotypic hit was inactive: 0.

Turning to `CCc1cccc2c3c([nH]c12)C(CC)(CC(=O)O)OCC3` (configuration not stated) [etodolac], the phenotypic hit was inactive: 0.

Turning to `Cc1noc(NS(=O)(=O)c2ccc(N)cc2)c1C` [sulfisoxazole], the phenotypic hit was inactive: 0.

`CN(C)[C@@H]1C(O)=C(C(N)=O)C(=O)[C@@]2(O)C(O)=C3C(=O)c4c(O)ccc(Cl)c4[C@@H](O)[C@H]3C[C@@H]12` [demeclocycline hydrochloride]: the phenotypic hit was inactive: 0.

Regarding `CCCCCCCCCCCCCCCCCC(=O)OC(CC(=O)O)C[N+](C)(C)C` (configuration not stated) [stearoylcarnitine chloride], the phenotypic hit was inactive: 0.

`NC(N)=O` [urea]: the phenotypic hit was inactive: 0.

Take `Nc1nc2ncc(C(=O)O)nc2c(=O)[nH]1` [pterin-6-carboxylic acid]: the phenotypic hit is inactive: 0.
